Assay results from article PMC6677663, “KDM2A-dependent reduction of rRNA transcription on glucose starvation requires HP1 in cells, including triple-negative breast cancer cells” (Oncotarget, 2019).
These are yes or no findings as the source states them, for the method shown. For part of these data: Binding seen in cells or lysates may run through a third protein. Some binding calls cover weakened binding; strength is not graded here. For part of these data: Where a sequence is shown, tags or fusion partners need not be part of it.

Chains of the proteins cited; added tags and fusions are not shown. Lines headed by an entry give the natural chain unless they say otherwise; changes in a name come on top. Residues count along the entry.
UniProt P45973: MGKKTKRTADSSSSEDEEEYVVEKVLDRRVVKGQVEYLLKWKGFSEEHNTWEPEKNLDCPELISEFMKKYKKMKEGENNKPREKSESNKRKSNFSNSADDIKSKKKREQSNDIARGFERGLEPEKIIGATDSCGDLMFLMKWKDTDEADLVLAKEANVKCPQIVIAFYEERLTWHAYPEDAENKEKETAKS
UniProt P83916: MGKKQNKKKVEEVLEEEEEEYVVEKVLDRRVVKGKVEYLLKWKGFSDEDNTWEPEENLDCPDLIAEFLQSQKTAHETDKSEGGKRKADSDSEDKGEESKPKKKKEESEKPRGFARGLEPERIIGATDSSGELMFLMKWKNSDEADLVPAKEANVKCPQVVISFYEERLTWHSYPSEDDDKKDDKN
UniProt Q13185: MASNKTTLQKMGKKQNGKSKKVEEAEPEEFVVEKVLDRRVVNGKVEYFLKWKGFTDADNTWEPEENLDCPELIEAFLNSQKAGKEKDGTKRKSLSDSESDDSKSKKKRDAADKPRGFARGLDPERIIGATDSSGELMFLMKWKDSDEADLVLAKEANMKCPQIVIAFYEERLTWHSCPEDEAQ
Flag-HP1γ (ΔCSD): residues 1-115 of Q13185

Assays:
[1] = biological target: Flag-HP1α (human) (UniProt P45973); assay: co-IP; Flag-HP1 forms co-expressed with KDM2A forms in 293T cells; lysate in 0.1% Triton X-100, 300 mM NaCl, 300 mM sucrose, 1 mM MgCl2, 1 mM EGTA, 10 mM PIPES pH 7.0; precipitated with anti-Flag agarose; Western blot with anti-KDM2A (ab99242), anti-GFP and anti-Flag
[2] = biological target: Flag-HP1β (human) (UniProt P83916); assay: as above
[3] = biological target: Flag-HP1γ (human) (UniProt Q13185); assay: as above
[4] = biological target: Flag-HP1γ (V32M) (human) (UniProt Q13185); assay: as above
[5] = biological target: Flag-HP1γ (ΔCSD) (human) (UniProt Q13185); assay: as above
[6] = biological target: Flag-HP1γ (CSD) (human) (UniProt Q13185); assay: as above
[7] = biological target: T1, Recombinant His-tagged HP1γ (human, UniProt Q13185 1-183); assay: pull-down; His-tagged HP1γ forms incubated with GST-KDM2A fragments in 300 mM NaCl, 50 mM Na-phosphate pH 7.0, 4 °C 1 h; collected on TALON resin (1% NP40 washes); SDS-PAGE; both purified
T1 construct: HP1γ, human; the cDNA used encodes 183 amino acids; pCold I vector; also called His-HP1γ; His-tag HP1γ; source: E. coli DH5α (pCold I), isolated with TALON His-tag resin, dialysed

[8] = biological target: T2, Recombinant His-tagged HP1γ (CSD) (human, UniProt Q13185 110-183); assay: as above
T2 construct: HP1γ, human, chromoshadow domain construct, amino acids 110-183; Limits 110-183 are those printed for the HP1γ (CSD) cDNA; the His-tag plasmids are described only as 'His-tag HP1γ and its mutants'; also called CSD of HP1γ; His-HP1γ mutant; source: E. coli DH5α (pCold I), isolated with TALON His-tag resin, dialysed

B1: KDM2A (protein, UniProt Q9Y2K7 1-1162)
chain: MEPEEERIRYSQRLRGTMRRRYEDDGISDDEIEGKRTFDLEEKLHTNKYNANFVTFMEGKDFNVEYIQRGGLRDPLIFKNSDGLGIKMPDPDFTVNDVKMCVGSRRMVDVMDVNTQKGIEMTMAQWTRYYETPEEEREKLYNVISLEFSHTRLENMVQRPSTVDFIDWVDNMWPRHLKESQTESTNAILEMQYPKVQKYCLMSVRGCYTDFHVDFGGTSVWYHIHQGGKVFWLIPPTAHNLELYENWLLSGKQGDIFLGDRVSDCQRIELKQGYTFVIPSGWIHAVYTPTDTLVFGGNFLHSFNIPMQLKIYNIEDRTRVPNKFRYPFYYEMCWYVLERYVYCITNRSHLTKEFQKESLSMDLELNGLESGNGDEEAVDREPRRLSSRRSVLTSPVANGVNLDYDGLGKTCRSLPSLKKTLAGDSSSDCSRGSHNGQVWDPQCAPRKDRQVHLTHFELEGLRCLVDKLESLPLHKKCVPTGIEDEDALIADVKILLEELANSDPKLALTGVPIVQWPKRDKLKFPTRPKVRVPTIPITKPHTMKPAPRLTPVRPAAASPIVSGARRRRVRCRKCKACVQGECGVCHYCRDMKKFGGPGRMKQSCVLRQCLAPRLPHSVTCSLCGEVDQNEETQDFEKKLMECCICNEIVHPGCLQMDGEGLLNEELPNCWECPKCYQEDSSEKAQKRKMEESDEEAVQAKVLRPLRSCDEPLTPPPHSPTSMLQLIHDPVSPRGMVTRSSPGAGPSDHHSASRDERFKRRQLLRLQATERTMVREKENNPSGKKELSEVEKAKIRGSYLTVTLQRPTKELHGTSIVPKLQAITASSANLRHSPRVLVQHCPARTPQRGDEEGLGGEEEEEEEEEEEDDSAEEGGAARLNGRGSWAQDGDESWMQREVWMSVFRYLSRRELCECMRVCKTWYKWCCDKRLWTKIDLSRCKAIVPQALSGIIKRQPVSLDLSWTNISKKQLTWLVNRLPGLKDLLLAGCSWSAVSALSTSSCPLLRTLDLRWAVGIKDPQIRDLLTPPADKPGQDNRSKLRNMTDFRLAGLDITDATLRLIIRHMPLLSRLDLSHCSHLTDQSSNLLTAVGSSTRYSLTELNMAGCNKLTDQTLIYLRRIANVTLIDLRGCKQITRKACEHFISDLSINSLYCLSDEKLIQKIS
binding [1]: binds | binding [2]: binds | binding [3]: binds | binding [4]: binds

B2: GFP fusion protein with KDM2A (amino acids 785–817) (domain or fragment, UniProt Q9Y2K7 785-817)
chain: ELSEVEKAKIRGSYLTVTLQRPTKELHGTSIVP
binding [3]: binds | binding [5]: no binding | binding [6]: binds

B3: recombinant KDM2A fragment (amino acids 785–817, V801E) fused with GST (domain or fragment, UniProt Q9Y2K7 785-817)
chain: ELSEVEKAKIRGSYLTETLQRPTKELHGTSIVP
binding [7]: no binding | binding [8]: no binding
